For 88 sequences, binding signal (log2 normalized fluorescence) results are on record in PMC5515408.

The list shows a part of the results. At the low end of the ranking, values are background and their order means little.

The target of the assay is MAX:MAX (p21) (UniProt P61244-2). As to the kind of experiment: protein-binding microarray (anti-MAX antibody). Conditions: PBM: 15 mM Tris-HCl pH 7.5, 100 mM KCl, 0.075% NP40, 7.5 mM beta-mercaptoethanol, 375 ng/ul BSA, 8 ng/ul poly(dA-dT):(dA-dT), 550 ng complex, 60 min, room …; high values mean tight binding; double strand, one strand shown; sequences stand for … in CCGGC…TTAATAGCTAAGATTACTATATCGACG
Turning to TGATTTATGGTA, the binding signal (log2 normalized fluorescence) is -0.868.

With TGACATTTAGTA, the binding signal (log2 normalized fluorescence) is -0.344.

For TGAGGCGTGGTA, the binding signal (log2 normalized fluorescence) worked out at 2.46.

In the case of TGACATTGGGTT, the binding signal (log2 normalized fluorescence) was -0.0321.

TGAAATCTGGTA: the binding signal (log2 normalized fluorescence) is -0.912.

TGATTTATCGTA: the binding signal (log2 normalized fluorescence) is -1.26.

Regarding TGAGCCAGCGTA, the binding signal (log2 normalized fluorescence) was -0.837.

With TGATGGACAGTA, the binding signal (log2 normalized fluorescence) is -0.228.

As for TACAACGTGGTA, the binding signal (log2 normalized fluorescence) was found to be 3.2.

Consider CGACACGTGCTA, for which the binding signal (log2 normalized fluorescence) was determined as 3.18.

TGAGTGTGAGTA came in with a binding signal (log2 normalized fluorescence) of 0.413.

With TGACAGTATGTA, the binding signal (log2 normalized fluorescence) came to 0.262.

Regarding GGACGCGTGGTA, the binding signal (log2 normalized fluorescence) worked out at 3.14.

With TGACGGCCCGTA, the binding signal (log2 normalized fluorescence) was -0.704.

As for TGACAATGAGTA, the binding signal (log2 normalized fluorescence) was found to be 0.267.

Regarding TACGAATATGGT, the binding signal (log2 normalized fluorescence) is -0.457.

Take TGAACTTGGGTA: the binding signal (log2 normalized fluorescence) was -0.557.

With TGACGCAGTGTA, the binding signal (log2 normalized fluorescence) was -0.153.

Turning to CCCAAACTTCGA, the binding signal (log2 normalized fluorescence) was -0.484.

Regarding TGACCAAGTGTA, the binding signal (log2 normalized fluorescence) is -0.073.

In the case of TGATGATGAGTA, the binding signal (log2 normalized fluorescence) is -0.35.

TGATCACCTGTA returned a binding signal (log2 normalized fluorescence) of 1.31.

Regarding TGACTAGTGTTA, the binding signal (log2 normalized fluorescence) is -0.258.

As to AGACACGTCGTA, the binding signal (log2 normalized fluorescence) was found to be 2.39.

For TGAAGTCTTGTA, the binding signal (log2 normalized fluorescence) was -1.01.

With TCACACGGGTTA, the binding signal (log2 normalized fluorescence) was determined as 2.8.

With TGACAGTTGGTA, the binding signal (log2 normalized fluorescence) is -0.32.

In the case of TGACACGTAGAA, the binding signal (log2 normalized fluorescence) amounted to 1.04.

With TGAGTTCGGGTA, the binding signal (log2 normalized fluorescence) was -1.13.

Consider TTTTACGTGGTA, for which the binding signal (log2 normalized fluorescence) came to 0.616.

As for TGAAATCCAGTA, the binding signal (log2 normalized fluorescence) is -0.802.

Turning to TGATGACCAGTA, the binding signal (log2 normalized fluorescence) was -0.0893.

Turning to TGAGTTTTAGTA, the binding signal (log2 normalized fluorescence) was -1.19.

As to TGAATAGGGGTA, the binding signal (log2 normalized fluorescence) was -0.451.

With TGAGCGAACGTA, the binding signal (log2 normalized fluorescence) was -0.765.

As to TGATCGACGGTA, the binding signal (log2 normalized fluorescence) is -0.856.

In the case of TGACATGCCGTA, the binding signal (log2 normalized fluorescence) was 2.53.

Consider TGAAAGCTCGTA, for which the binding signal (log2 normalized fluorescence) is -1.17.

TGAGTCCATGTA: the binding signal (log2 normalized fluorescence) is -0.0823.

For TGACAAGACGTA, the binding signal (log2 normalized fluorescence) was -0.107.

On to TGATTAACCGTA, for which the binding signal (log2 normalized fluorescence) was -0.986.

On to TGAAACTGAGTA, for which the binding signal (log2 normalized fluorescence) is -0.817.

Take TGAAGGTATGTA: the binding signal (log2 normalized fluorescence) was -0.0847.

Consider TGACCAAGAGTA, for which the binding signal (log2 normalized fluorescence) is -0.637.

Regarding TGTCCCGTGGTA, the binding signal (log2 normalized fluorescence) came to 2.5.

TGAGCACCGGTA: the binding signal (log2 normalized fluorescence) was 0.427.

For the sequence TATGATTACGTC, the binding signal (log2 normalized fluorescence) was -0.717.

On to TGAGGCCAGGTA, for which the binding signal (log2 normalized fluorescence) is -0.511.

TGACCCGATGTA yielded a binding signal (log2 normalized fluorescence) of 0.302.

Sequence TGAATGGCTGTA had a binding signal (log2 normalized fluorescence) of 0.472.

In the case of TGATCGCTGGTA, the binding signal (log2 normalized fluorescence) was -0.679.

For the sequence TGAAGAATCGTA, the binding signal (log2 normalized fluorescence) was -0.712.

For TGAGCTTTCGTA, the binding signal (log2 normalized fluorescence) is -1.05.

For the sequence TGAAAAGGGGTA, the binding signal (log2 normalized fluorescence) is -0.143.

For the sequence TTTACATATAAT, the binding signal (log2 normalized fluorescence) was -0.608.

AGACACGAGGTT had a binding signal (log2 normalized fluorescence) of 3.03.

Take TGGCAAGGGGTA: the binding signal (log2 normalized fluorescence) was 0.278.

Regarding TGATTCCGGGTA, the binding signal (log2 normalized fluorescence) was -1.43.

As for TGACGAATTGTA, the binding signal (log2 normalized fluorescence) is -0.8.

Consider TGAAGGTTTGTA, for which the binding signal (log2 normalized fluorescence) is -0.729.

As for TGATTGCATGTA, the binding signal (log2 normalized fluorescence) was found to be 1.25.

With TGACGCCCAGTA, the binding signal (log2 normalized fluorescence) was -0.414.

As to TGAATACTTGTA, the binding signal (log2 normalized fluorescence) is -0.939.

Sequence TGAACATTTGTA displayed a binding signal (log2 normalized fluorescence) of 0.0635.

Turning to TGAGGTAACGTA, the binding signal (log2 normalized fluorescence) was -0.404.

Consider TGAACGCGTGTA, for which the binding signal (log2 normalized fluorescence) was determined as 3.14.

The sequence TTCAACGTGGTA came in with a binding signal (log2 normalized fluorescence) of 3.17.

For the sequence TGATGACGGGTA, the binding signal (log2 normalized fluorescence) is -0.0565.

Consider TGACCTAAGGTA, for which the binding signal (log2 normalized fluorescence) was -0.347.

In turn, TGATCGTGAGTA displayed a binding signal (log2 normalized fluorescence) of 0.179.

Turning to TGAGGCGAAGTA, the binding signal (log2 normalized fluorescence) was -0.977.

As to TGATACTAGGTA, the binding signal (log2 normalized fluorescence) was -0.819.

Consider TGATATCTTGTA, for which the binding signal (log2 normalized fluorescence) is -1.14.

TGATTCATAGTA: the binding signal (log2 normalized fluorescence) was -0.868.

As for TGATCTATGGTA, the binding signal (log2 normalized fluorescence) is -0.981.

Turning to TGAGGTATAGTA, the binding signal (log2 normalized fluorescence) was -0.844.

With TGAGTGAGTGTA, the binding signal (log2 normalized fluorescence) is -0.184.

As for TTCGATCCTGCA, the binding signal (log2 normalized fluorescence) was -0.567.

TGAATTGACGTA: the binding signal (log2 normalized fluorescence) was -0.745.

With TGAGTGCTCGTA, the binding signal (log2 normalized fluorescence) is 0.0237.

In turn, TGACAGGCTGTA gave a binding signal (log2 normalized fluorescence) of 0.825.

Take TGAAACGAGGCA: the binding signal (log2 normalized fluorescence) was found to be 1.27.

Turning to TGATCCACCGTA, the binding signal (log2 normalized fluorescence) is -0.291.

Take TGAACTTGCGTA: the binding signal (log2 normalized fluorescence) is -0.171.

Consider TGATATTGAGTA, for which the binding signal (log2 normalized fluorescence) is -0.926.

The sequence TGAGTGCATGTA had a binding signal (log2 normalized fluorescence) of 1.12.

Regarding TGATACGGGGAA, the binding signal (log2 normalized fluorescence) is -0.538.

On to TGAATGACAGTA, for which the binding signal (log2 normalized fluorescence) is -0.0755.
